# The list shows a part of the results.
# Tested on: PfAP2-HC AP2 domain (GST-tagged)
# Assay: gcPBM binding intensity (ln(normalized median fluorescence intensity)); higher = stronger DNA binding
# Summary of the method: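 DNA-binding domains from P. falciparum, fused to GST and produced in E. coli, were put on an Agilent 4 × 180k double-stranded probe array for 1 h in 1× PBS holding 1% milk, 0.2 mg/ml BSA, 0.5% salmon testes DNA and 0.03% Triton X-100. Probes were primer-extended, 36 bp long and drawn from intergenic genomic regions, with negative controls included. After Alexa488 anti-GST antibody detection and a 488 nm scan, binding intensity was set as the highest Masliner-normalised natural-log median intensity across replicate spots of either probe orientation.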
row,Sequence,gcPBM binding intensity (ln)
1,AATACATAATAACATGTACACACATTCTTCTATAAA [CACACA_site9344],9.82
2,TATACGAAATTGTGCACACATATATTTATGTATGTA [CACACA_site1509],9.89
3,TTAAAAGAATATAATGCACACATTATTTTATTTTAT [CACACA_site3772],9.68
4,AAAAAAAACGAACACACACACATACAAAATCTATAT [CACACA_site6795],11.1
5,TACCCACGTATATATATACACACTAATATACACCCA [CACACA_site9381],9.88
6,ATTTATATATAATTTTGTACGAAAAAAATAAGGTAT [XGTACX_site3578],9.64
7,TATATATTTATTAAATGTACATAACAAAAATGGTAT [XGTACX_site3577],9.76
8,TGCATACATAAATGTATATATTAATATATATCATAT [GTGCAC_negctrl_site252],9.63
9,AAATAAAGTAAAATATGTACATAAATTAAAACACAT [XGTACX_site8539],10
10,TTAAATGAAAAAATATGTACGTATAATAAGAAATAT [XGTACX_site6619],9.8
11,GTATGAGTCGTAGAGTGTACTCTGGAGAAAACTACA [XGTACX_site4942],9.53
12,TTTTTTCTTAGTTATACATGCAAAATAAATAAATAA [TGCATGCA_site410],9.17
13,TATTTTTTCTTAAACACACACATATATATATAGAAT [CACACA_site2836],9.91
14,TATAACGCTTGCAGCTGTACAAAAATAATCAAACTG [XGTACX_site2464],9.37
15,TTTTTTTTTTTGTTCACACATATACTTTTATTTTGG [CACACA_site4250],9.68
16,AATGCTATCATTAATGCACACATTTAAACTTAATAT [CACACA_site5878],9.8
17,TTTGTTTTAAATATTATACACACGTAAAAGTAGAAT [CACACA_site214],9.65
18,GGAAACCTTTTTTTTACACACAATATATTAATACTT [CACACA_site1403],9.94
19,TACACCCTATTTTTATGTACTTATTTGATTTACACA [XGTACX_site8172],9.86

row,Sequence,gcPBM binding intensity (ln)
1,ATATAAATACGGTGTGCACACACATAATATATATAT [CACACA_site2271],10.5
2,CAAATTTAAAAAAAATCACACACAGAAAAAAAAAAA [CACACA_site8728],10.1
3,CAAGAAAATGGACACACACACATATATATATATATA [CACACA_site6010],10.2
4,TGTATACGCATATGTACACACATATATATGTATATG [CACACA_site3087],9.87
5,GTGTAATTATCAGCATAAATATGGTACATACATAAA [CACACA_negctrl_site323],9.69
6,AAAAGATTTATACATACACACATATTATAGTCACAT [CACACA_site7701],10.2
7,TACGAAAGGTAATATTGTACATTACAAAATTTTATA [XGTACX_site5512],9.43
8,TATGTATAAATATTAACACACAAAAAAAAAAAAAAA [CACACA_site6938],9.56
9,AATAAGCAGAAACACACACACAAAAAAAAAAAAAAA [CACACA_site719],10.1
10,ATATAAACAAAGCAGTGCACGTAAACAAAACATATA [CACACA_negctrl_site1076],10.2
11,GTTTGATAACACCTACAAACTCTTTTTTTTTTTTTT [CACACA_negctrl_site1134],9.51
12,AAATGAAGATTTAAATGTACGAGAGGGTATACAAAT [XGTACX_site5075],9.89
13,CATAATATTAAATCAGTGCAAATATACAGAATAAAT [GTGCAC_site9786],9.78
14,GACTTCTCCATATACACACACCAACAAATATAAAAA [CACACA_site7331],10.1
15,AAATTTATAAATTAAAGTACATATTTCTTGAATATT [XGTACX_site859],9.54
16,TATTAAATTATATAGACACACATTATGTATATATAT [CACACA_site345],9.78
17,TATAGATACACTTTGTGTACATAAAAATTGTATTAA [XGTACX_site7137],9.66
18,CTATACAATAAAAATTGTACATACATATATGTTATA [XGTACX_site5309],9.6
19,ATAATATGTTATTAAGTGCATATTAATTATTATTAT,9.6

row,Sequence,gcPBM binding intensity (ln)
1,AATTTTTCTTTTTTTTGTACAGAATATATATTTTAT [XGTACX_site1419],9.69
2,ATATTTATGTAATGTTTGATTTTTTTTTTATGTGTG [CACACA_negctrl_site1422],9.88
3,ACATATACATACATATGTACATATACATAAATATAT [XGTACX_site1285],9.79
4,AAAAAAAAAATTGAAAGTACACAAATGGGGTATTAT [XGTACX_site3960],9.9
5,TACTGTTTAAAATATACACACATAATCAAAAAAAAA [CACACA_site2510],9.71
6,TATATATTTACATATTGTACAATATAAAAATAATTA [XGTACX_site19],9.28
7,TCGTTATCCATCTTCACACATATATATAGTAATATA [CACACA_site5492],9.75
8,TATATATATCTTTTGGTGCATATTTCGAATATATGT,9.66
9,TCAAAGGAATTTTTATGTACATATAAACTTTATTCT [XGTACX_site3432],9.73
10,AAAAAAAAAAAAAAATGTACATATATATTTATATAT [XGTACX_site229],9.53
11,AACCCCAAGCCGTACTGTACATATATTTTTATTTTA [XGTACX_site142],9.91
12,AAAAGTTGTATTTGCACACATAAAAAAAAGATATTA [CACACA_site3840],9.97
13,TATAATATAAAAAAAAGTACACGAATTTTTTTTCAG [XGTACX_site6105],9.52
14,AAATAAATTTGACCAGTGCAATAACTTTGTATACCT [GTGCAC_site9446],9.63
15,ACAATATATTTTTGAGCATGCGCAAAAGAGAATGCA [TGCATGCA_site566],9.66
16,ATCCAAAAGAAAAATAGTACAGATATGAACAATATG [XGTACX_site6944],9.65
17,TAAAATCAATGTTCTTGTACTTAAAATGTTTGTTCT [XGTACX_site5490],9.72
18,TATTATTCTACTATTATATTCTATATTATTTATAGT [CACACA_negctrl_site499],9.78
19,ATATATCTATATAGAAATGTATATATATATATGTGT [TGCATGCA_negctrl_site349],9.77

# — the supplement of paper PMC11417369
